The subject of this assay is Plasmodium falciparum. In words: Primary screen in NF54 nanoGlo assay, in single point, at 2uM, 72h; a lower Z score goes with more inhibition. It counts as functional, Erythrocyte. Conditions: timepoint 72 hour.

Where “and” joins values, the source holds several entries; their conditions need not be identical. Equal values may be shown once. Among all 150,000 compounds or so, about 540 (0.36%) showed an effect of 50% or more. This is one part of the list.

Usually % Inhibition stands for the drop in the measured response relative to a control, in per cent. On to `CCCCS(=O)(=O)N1C[C@H]2CCC(=O)c3cccc1c32`, for which the “% Inhibition” value is -9% and the Z score came to 1.63.

`COc1ccc(CCC(=O)N2CCC[C@H](COCc3ccccc3)C2)cc1`: the “% Inhibition” value is -7% and the Z score worked out at 1.33.

`O=C(NC(COc1ccccc1F)c1ccccc1)C1CCNC1` (centres undefined): the “% Inhibition” value is listed as 4% and the Z score is listed as -0.75.

Regarding `CC1(C)C[C@@H](C(=O)N2CCn3c(C(N)=O)cnc3C2)CCO1`, the “% Inhibition” value is listed as -20% and the Z score came out at 1.88.

Take `O=C(CN1CCc2[nH]nc(-c3cccc4ccccc34)c2C1)N1CCCCC1`: the “% Inhibition” value is 6% and the Z score is -0.74.

As to `COc1ccc(C(C)NC2CCS(=O)(=O)C2)cc1Cn1cccn1` (centres undefined), the “% Inhibition” value is -2% and the Z score is listed as 0.31.

Consider `O=C(c1nn(Cc2ccccc2)c(=O)c2ccccc12)N1CCOCC1`, for which the “% Inhibition” value was -12% and the Z score is given as 1.2.

On to `CCn1cc(CN2CCCC23CCN(c2ccc(C(F)(F)F)cn2)CC3)cc1C#N`, for which the “% Inhibition” value was -17% and the Z score was found to be 2.22.

For the molecule `CCc1noc2nc(C)nc(NC3CCCCCC3)c12`, the “% Inhibition” value turned out to be 4% and the Z score is -0.41.

Consider `CC[C@H]1COCCN1C(=O)Nc1cccc(N(C)CC)c1`, for which the “% Inhibition” value was 4% and the Z score was -0.58.

Regarding `COc1ccc(N2CCN(C(=O)Cc3ccc(S(=O)(=O)N4CCOCC4)s3)CC2)cc1`, the “% Inhibition” value is on record as 2% and the Z score was -0.2.

Turning to `CN(CCc1noc(C2CC2)n1)C(=O)Nc1cccc2[nH]ncc12`, the “% Inhibition” value is 7% and the Z score is -0.97.

As for `COc1cncc(O[C@H]2CCCN(C(=O)Cn3ncccc3=O)C2)n1`, the “% Inhibition” value is listed as -14% and the Z score was found to be 2.34.

`CCNC(=O)N(CCOC)Cc1csc(COc2cccc3ccccc23)n1`: the “% Inhibition” value is on record as -3% and the Z score is 0.48.

In the case of `Cc1nc2c([nH]1)CN(Cc1cc(CC(C)C)on1)CC2`, the “% Inhibition” value is given as -5% and the Z score is listed as 0.65.

Consider `Cn1nc(C(=O)N2CCN(S(=O)(=O)c3ccccc3)CC2)ccc1=O`, for which the “% Inhibition” value is on record as 6% and the Z score is -1.09.

As to `Cn1nccc1CS(=O)(=O)c1ccc(F)c(F)c1`, the “% Inhibition” value was found to be 36% and the Z score is reported as -5.18.

Regarding `CC(C)NC(=O)CCN(c1nc(-c2cccc(Br)c2)nc2ccccc12)C1CC1`, the “% Inhibition” value is on record as -15% and the Z score was determined as 2.09.

On to `COc1ccc([C@H]2C[C@@H](C(F)(F)F)n3ncc(C(=O)NCCc4ccccc4)c3N2)cc1`, for which the “% Inhibition” value was -12% and the Z score is reported as 1.9.

As to `COc1ccccc1N(C)CCC(=O)NC(N)=O`, the “% Inhibition” value is given as -1% and the Z score is given as 0.15.

`CO[C@H]1CCN(C(=O)c2cnn3ccc(N)cc23)C1`: the “% Inhibition” value was -5% and the Z score is 0.65.

Turning to `COc1ccc2c(c1)CCC[C@@]2(O)CNS(=O)(=O)CCC(F)(F)F`, the “% Inhibition” value is given as 14% and the Z score was -1.84.

As to `O[C@]1(c2ccccc2)C[n+]2ccccc2N1Cc1ccccc1`, for the setting “2 µM”, the “% Inhibition” value was -12% and -7%; the Z score is 2.06 and 1.3.

For the molecule `CCc1c(C(=O)N(C)Cc2cc(C#N)cs2)cnn1CCC(C)C`, the “% Inhibition” value is -12% and the Z score is on record as 1.32.

For the molecule `COc1nc2c(cc1CNC(=O)[C@@H]1CN(C)C(=O)N1)C(=O)N(C1CCCC1)C2`, the “% Inhibition” value is on record as -4% and the Z score was determined as 0.74.

With `COc1c(F)cc(CN2CC[C@H](CNC(=O)C(F)F)C2)cc1F`, the “% Inhibition” value was found to be 0% and the Z score was 0.

`CCCN(C)C(=O)Cc1cn(C)c2ncccc12`: the “% Inhibition” value is listed as -6% and the Z score was 0.68.

For the molecule `CN1C(=O)[C@@H](c2ccccc2)CC12CCN(Cc1cccc3nonc13)CC2`, the “% Inhibition” value is recorded as -6% and the Z score amounted to 0.93.

`COc1cccc(CNC(=O)CN(C)CCOc2ccc(O)cc2)c1`: the “% Inhibition” value is reported as -10% and the Z score turned out to be 1.09.

Turning to `O=C(c1c(F)cccc1F)N1CCN(c2cc(-n3cccn3)ncn2)CC1`, the “% Inhibition” value is 0% and the Z score is reported as 0.03.

As for `Cn1nc(C(=O)NC2CC3CC2C2CCCC32)ccc1=O` (centres undefined), the “% Inhibition” value was -12% and the Z score amounted to 1.14.

As for `Cc1ccc(C(=O)N[C@@H](CC(C)C)c2nnc3n2CCNCC3)c(F)c1`, the “% Inhibition” value is -1% and the Z score worked out at 0.19.

`CC[C@@H](CNC(=O)Nc1ccc(N2CCOCC2)nc1)N1CCCC1`: the “% Inhibition” value is listed as -4% and the Z score worked out at 0.67.

As for `CCOc1c(Br)cc(Br)cc1CNCCNCCO`, the “% Inhibition” value came out at 0% and the Z score is reported as -0.02.

Turning to `FC(F)(F)CN1CCC(NCC2CCOC2c2ccccc2)C1` (centres undefined), the “% Inhibition” value is recorded as -11% and the Z score was determined as 1.53.

Regarding `O=C(Nc1nc(-c2ccc3c(c2)OCO3)cs1)[C@@H]1COc2ccccc2O1`, the “% Inhibition” value was -6% and the Z score amounted to 1.01.

Regarding `O=C(C[C@H]1CCOC2(CCN(C(=O)NC3CCCCC3)CC2)C1)N1CCOCC1`, the “% Inhibition” value is given as -4% and the Z score was 0.51.

Regarding `OCCOc1cncc(-c2ccc3c(c2)CCN3)c1`, the “% Inhibition” value is -7% and the Z score was determined as 0.8.

Consider `CCCCCNC(=O)c1cnn(C)c1N`, for which the “% Inhibition” value is -4% and the Z score was 0.48.

Consider `CC(C)(NC(=O)CC1CCC(F)(F)CC1)c1nc2ccccc2s1`, for which the “% Inhibition” value was determined as 37% and the Z score is -5.05.

Consider `Cc1ccc(-n2nc(C)c(S(=O)(=O)c3ccccc3)c2OC(=O)CCc2ccccc2)c(C)c1`, for which the “% Inhibition” value is 3% and the Z score was -0.48.

`COc1ccc(N(Cc2c(C)noc2C)Cc2c(C)noc2C)cc1`: the “% Inhibition” value is recorded as -5% and the Z score is on record as 0.44.

These data come from ChEMBL document CHEMBL4888484, “Replenishing the malaria drug discovery pipeline: Screening and hit evaluation of the MMV Hit Generation Library 1 (HGL1) against asexual blood stage Plasmodium falciparum ,using a nano luciferase reporter read-out” (2022).
